This is an account of results in publication PMC12136788.

The other results are listed elsewhere or left out.

T1: UNK ZnF1-6 (called full-length) (human, UniProt Q9C0B0 30-357)
T1 sequence: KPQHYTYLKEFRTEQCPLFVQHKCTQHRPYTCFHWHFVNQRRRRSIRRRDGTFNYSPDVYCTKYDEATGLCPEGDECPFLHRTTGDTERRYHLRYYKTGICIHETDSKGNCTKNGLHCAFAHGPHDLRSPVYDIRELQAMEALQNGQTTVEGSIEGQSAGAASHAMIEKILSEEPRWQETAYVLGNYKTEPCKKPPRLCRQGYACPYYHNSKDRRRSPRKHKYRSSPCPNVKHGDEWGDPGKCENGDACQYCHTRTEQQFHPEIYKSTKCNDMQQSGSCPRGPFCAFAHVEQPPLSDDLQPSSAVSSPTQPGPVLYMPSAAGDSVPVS

B1: ENSG00000120693:stop:overlap|stop_codon|ENSG00000120693|stop_codon|NA|stop_codon (ssRNA)
RNA: GGGAGUUCUACAGUCCGACGAUCGCAUUAACCCUUACCACUACCGCCGGGUGGAGACUCCAGGUGACUUUGCGGUGAUCCUCUAGGAGCUUUUGGAAUAUUCCAGUUAUCCCGCAGUGUUUGAAAUUCAAGAUGGAAAGACUACAACAGAGGAUUGAGCAUCA
B2: chr12:76025442:76025543:-|3pUTR|ENSG00000139289|msi1|FALSE|unique (ssRNA)
RNA: GGGAGUUCUACAGUCCGACGAUCAUACACCAUCACAUUCAUGAAUUUUUUAGCAUGGUCAGAACUUGUGUAAAUAUGUCUCUUAGAUGAUUUUGGGGAGAUGUGAUUUAUUUUUCAUAUUUUCAAAAUGCAUUUCAUUUCAAACAACAGAGGAUUGAGCAUCA
B3: chr1:25360731:25360844:+|3pUTR|ENSG00000183726|unk|FALSE|unique (ssRNA)
RNA: GGGAGUUCUACAGUCCGACGAUCUUUUUUACUGCUCACUCCCAACCUUUUGUAAUGCCAUUUUCUAAACUUAUUUCUGAGUGUAGUCUCAGCUUAAAGUUGUGUAAUACUAAAAUCACGAGAACACCUAAACAACAACCAAAACAACAGAGGAUUGAGCAUCA
B4: ENSG00000165244:stop:overlap|stop_codon|ENSG00000165244|stop_codon|NA|stop_codon (ssRNA)
RNA: GGGAGUUCUACAGUCCGACGAUCUGCAUGGAGCCCUCGCGCUCAUAGAGCUUGCCAACCUGACUGGGGCGCCACUCCGACAGUAGCUUGGACACUGACUCUUCCACUGUACAAAAGUACUGCCCAGCAUACUUAAAAAGUAGACAACAGAGGAUUGAGCAUCA
B5: chr6:52501983:52502084:-|3pUTR|ENSG00000065308|msi1|FALSE|unique (ssRNA)
RNA: GGGAGUUCUACAGUCCGACGAUCGGCCGCCCUUGUUGAGUGUUCUUUGGAAUUGUCGUUUUUUGAGCACAACUACAGCAUUUUAGACUGCAUGAAACCAUGACUGACUGAGAGUCACUCUCUGGGUAGAUGAUAGGCGCCUUUCAACAGAGGAUUGAGCAUCA
B6: chr12:442458:442559:+|3pUTR|ENSG00000120647|unk|FALSE|unique (ssRNA)
RNA: GGGAGUUCUACAGUCCGACGAUCCCUGAGCAGAGCCUGAAUUACGUUUUUGGGCAAUUUCAUGGUGUUUCACCAGAGGGCGCUAGAGACUCAAACGAAAUGUCCAUCUGGAAAGAUUCGGGAGACACUUUGCCGAGGGGAUGACAACAGAGGAUUGAGCAUCA
B7: chr2:42282796:42282970:+|CDS|ENSG00000143924|unk|total|mutant (ssRNA)
RNA: GGGAGUUCUACAGUCCGACGAUCAUAUGGUUAUCGAGGAAAGGACUGCCGAGCUAAUGUUUACCUUCUUCCGACCGGGAAAACCGUUUAUUUCAUUGCAUCAGCCGCCGUACUAUUUAAUUAUGAGGAGAGAACUCAGCGACACAACAGAGGAUUGAGCAUCA
B8: chr16:21655520:21655610:+|3pUTR|ENSG00000197006|msi1_unk|total|mutant (ssRNA)
RNA: GGGAGUUCUACAGUCCGACGAUCUCUGUGUUCACAAUUACGUGAAGGGAGGACCCUUGGGGACCGCCAUUCUAAAUAUCAUGCCGGAAUUUAAAAAGCCAAAAUACUAAUUAUUUCUUUGCCGUGUGUAAAGGAAUGUUUUUACAACAGAGGAUUGAGCAUCA
B9: chr11:73401874:73401975:-|3pUTR|ENSG00000054965|unk|FALSE|unique (ssRNA)
RNA: GGGAGUUCUACAGUCCGACGAUCUGCAGGGUUUGUCCUUUACUUAUCUGCCCCUUUCCUAGAAAACUCCUCGUUUCUGAAAUUAGGCAUUAUAUGGUUCCAGGACCCAGCCUUCAAAAUUCCUGGCAGGCCAGCUUCAACAUUCAACAGAGGAUUGAGCAUCA
B10: chr15:74955373:74955475:-|3pUTR|ENSG00000178718|unk|total|mutant (ssRNA)
RNA: GGGAGUUCUACAGUCCGACGAUCGGACAGUUUUCCUUUCCCGUUUUCUUUCCCCUGCUUCAGAGGAGCAUCUCUGAGGGUUCCCGCUCUUUUAACACCCCUUUUCCCCCUGCUGGCCCAGAGGGAGACCCAGGACUGAACUCUCAACAGAGGAUUGAGCAUCA
B11: chr2:224470697:224470798:-|3pUTR|ENSG00000036257|msi1|FALSE|bound_elsewhere (ssRNA)
RNA: GGGAGUUCUACAGUCCGACGAUCUGUGACAAACUAAAGUUAAUACAUGAAGCAUUGCAAUAUGGAAUUUUGCACAUUUUUGUUAGCUUUACAUUAUUUGCUGAUACCAACUUUUGGUAGGAAGGAAAACAGGGAAGGUGAUUGCAACAGAGGAUUGAGCAUCA
B12: ENSG00000155189:stop:overlap|stop_codon|ENSG00000155189|stop_codon|NA|stop_codon (ssRNA)
RNA: GGGAGUUCUACAGUCCGACGAUCAUGUGAACACCUGGAUAUAUGGAACCCUACUUGGCUGCCUGUGGGUUACUAUUAAAGCAUAGACAAGUAGCUGUCUCCAGACAGUGGGAUGUGCUACAUUGUCUAUUUUUGGCGGCUGCACAACAGAGGAUUGAGCAUCA
B13: ENSG00000143373:stop:overlap|stop_codon|ENSG00000143373|stop_codon|NA|stop_codon (ssRNA)
RNA: GGGAGUUCUACAGUCCGACGAUCACUUCCGCACGCAUGGCAUGGCGUUCAUCAGGGCUCGGCAGGGGGCUGUUGGGGACAACUAGUCUCCAAGGCCUGGGACUGACCAGCCCCUUCCUCUUGGAGCCUGGUUUUCCCUACUGCCAACAGAGGAUUGAGCAUCA
B14: ENSG00000164054:stop:overlap|stop_codon|ENSG00000164054|stop_codon|NA|stop_codon (ssRNA)
RNA: GGGAGUUCUACAGUCCGACGAUCCAGGAUUUGAGCUGGGACAACAAGGAGGAGACAGUGCGGAACAAGCUCCCAGAGGGGCAUAGGAGGAGGAGUGGCUUCCUGGGGUUGUGGCAGCAGGGAGGUGACUGGGGCCAGCUCAGACAACAGAGGAUUGAGCAUCA
B15: chr2:205796522:205796663:+|3pUTR|ENSG00000118257|msi1|total|mutant (ssRNA)
RNA: GGGAGUUCUACAGUCCGACGAUCGUUUUUAUUAAGUGCCUUGAAAAAAUGAAGAAAAAUGUAUUUUCCCUUUAUGUAAAAAUCCGUGAAUAUCUUAUGAAUUAAGGCAUUCCUCUUUCCCUAACCCCGAUGGCUCCAUUCCCACAACAGAGGAUUGAGCAUCA
B16: chr6:73594753:73594854:-|3pUTR|ENSG00000119899|unk|total|mutant (ssRNA)
RNA: GGGAGUUCUACAGUCCGACGAUCGGUUCACAUACCUGCCUGCCCGUCGGGCAACAUGAAGCCGGACAGUUCUGUUGAUUUUUCCGGGCCAUACUAAAGGGAAUGAGCUGAAACAGACCUCCUGAUACCUUUGCUUAAUUAAACCAACAGAGGAUUGAGCAUCA
B17: chr17:63832812:63832858:-|3pUTR|ENSG00000108604|msi1_unk|FALSE|overlapping (ssRNA)
RNA: GGGAGUUCUACAGUCCGACGAUCCCAGCCCUGGAGCCUGGAGGGAGACCACCCUCUGGGUCCUUGCUGGGGCCGCAGACACGUAGGCUGGGGUGAGGAGUGUCUGCUGUCACCCUCUACUCUCCAGCUUUAGUCUUAUAAAUGCAACAGAGGAUUGAGCAUCA
B18: ENSG00000107863:be:win_3601|CDS|ENSG00000107863|bound_else_gene|NA|bound_elsewhere_windowed (ssRNA)
RNA: GGGAGUUCUACAGUCCGACGAUCAAGGGAAUGGCUGAUAUUGAUAUACAAGAUGAUAAAUGGCGAGAUUUGAAUGUGAUAAGCAGUUUACUAAAAUCCUUCUUCAGAAAACUCCCUGAGCCUCUCUUCACAAAUGAUAAAUAUCAACAGAGGAUUGAGCAUCA
B19: chr3:160434497:160434598:+|3pUTR|ENSG00000113810|msi1|total|mutant (ssRNA)
RNA: GGGAGUUCUACAGUCCGACGAUCUUUAUGACCGGUUUAUCCGGGUACUAAAUGCAUUUCAACUUGACCGUUUCAACUUAUGACCGGUUUACCAGGAUGCCGUCCCACUGUUGAGGAGCAUCUAUUCCGGGGUUAAUUACUUUACAACAGAGGAUUGAGCAUCA
B20: chr16:20924479:20924582:+|3pUTR|ENSG00000102897|unk|total|mutant (ssRNA)
RNA: GGGAGUUCUACAGUCCGACGAUCCUACUAUAAAACUAUGUACCACUCUCAGAAUAUUCUCCGGCUUUUUUUUUUUCAAGUUACCGAUUUGCUUAAAGUGAGGUUUUUUGGUGUGUGCUUUUUUGUUGUCUUUUGACCCUUCCACAACAGAGGAUUGAGCAUCA
B21: chr11:62841694:62841860:-|5pUTR|ENSG00000133316|unk|total|mutant (ssRNA)
RNA: GGGAGUUCUACAGUCCGACGAUCGCCGCCGAGGCGACCGAAGUAAAGGUAUCGCUUCUCGGCCUUUUGGCUAAGAUCAAGUGCCGUAUCUGUUCUUAUCAGUUUAAUAUCUGAUACGUCCUCUAUCCGAGGACAAUAUAUUAACAACAGAGGAUUGAGCAUCA
B22: chr19:48382969:48383148:-|3pUTR|ENSG00000105438|msi1_unk|total|mutant (ssRNA)
RNA: GGGAGUUCUACAGUCCGACGAUCACUUGGGCUGUUUGCCGUUUUUUGCCUUUCCGACAAGAAAAAAAAAUCUUUCCACUCUUCCGUUUUUGAUUCUGAUGACUCGUUUUUCUUCUACUCUGUGGCCCCAAUUUUUAUAAAGUGCAACAGAGGAUUGAGCAUCA

The target in the test is T1, UNK ZnF1-6 (called full-length). Kind of test: nsRBNS (natural sequence RNA bind-n-seq); RBNS binding buffer (assumed for nsRBNS): 25 mM Tris pH 7.5, 150 mM KCl, 3 mM MgCl2, 0.01% Triton X-100, 500 ug/ml BSA, 20 U/ml SUPERase-In, 4 C; UNK is unkempt and MSI1 is Musashi-1; names of the RNAs are library labels; protein concentration not given here; high values mean tight binding.
On to B1, for which the binding signal stood at 1.53 enrichment R.
Next, B2: 0.888 enrichment R.
Next, B3: 0.614 enrichment R; B4: 0.446 enrichment R; B5: 0.504 enrichment R.
Next, B6: 0.538 enrichment R; B7: 0.857 enrichment R.
As to B8, the binding signal is 0.41 enrichment R.
Next, B9: 0.79 enrichment R; B10: 0.865 enrichment R.
Next, B11: 0.481 enrichment R; B12: 0.408 enrichment R; B13: 0.569 enrichment R.
B14 displayed a binding signal of 0.709 enrichment R.
Next, B15: 0.382 enrichment R; B16: 0.619 enrichment R; B17: 1 enrichment R.
Next, B18: 0.528 enrichment R.
B19 returned a binding signal of 0.363 enrichment R.
Next, B20: 0.953 enrichment R; B21: 0.28 enrichment R; B22: 0.646 enrichment R.
